Assay results published in the BET-seq Pho4 binding data (Le et al. 2018).
The other results are listed elsewhere or left out. These are noisy estimates, calculated here from bound and input reads.

Target: T1, Pho4 (S. cerevisiae) (UniProt P07270)
T1 sequence: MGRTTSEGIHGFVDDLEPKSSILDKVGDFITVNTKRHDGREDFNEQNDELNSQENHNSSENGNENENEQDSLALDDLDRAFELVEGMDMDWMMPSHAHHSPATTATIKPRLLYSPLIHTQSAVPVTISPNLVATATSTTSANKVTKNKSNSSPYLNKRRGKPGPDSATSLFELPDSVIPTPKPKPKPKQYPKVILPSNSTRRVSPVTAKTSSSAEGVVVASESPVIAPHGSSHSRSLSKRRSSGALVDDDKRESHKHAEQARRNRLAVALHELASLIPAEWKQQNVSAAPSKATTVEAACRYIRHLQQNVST
Assay: relative binding free energy (BET-seq); higher = weaker binding
Conditions: reference: library average

Relative binding free energy, 0.14 kcal/mol:
TTGTACACGTGTGTAG
GCAAGCACGTGAGGGG
ATTCACACGTGTGGGT
TTGCTCACGTGGTTGA
TTTTGCACGTGTTGGG
GTATTCACGTGTATTA
GACGTCACGTGTGGCG

Relative binding free energy, -0.17 kcal/mol:
ATGGACACGTGCTGTT

Relative binding free energy, 0.09 kcal/mol:
CTTCGCACGTGTGGTA
TATCGCACGTGTGTGT
TCTGGCACGTGGAAGG

Relative binding free energy, 0.02 kcal/mol:
CTTGACACGTGATGGT
TGCACCACGTGGTTGG
TCGGTCACGTGGGTGG
GGTGACACGTGTTAAT
GGGGTCACGTGGGGTA
TCGGTCACGTGCAGTG
TCGGGCACGTGTAAGT

Relative binding free energy, 0.51 kcal/mol:
GGTTTCACGTGAGTCA

Relative binding free energy, -0.31 kcal/mol:
TTACGCACGTGCGGTG
AGTGGCACGTGGGCAC

Relative binding free energy, 0.03 kcal/mol:
ATGGACACGTGTTCTT
TAGGTCACGTGGCAGA
TATGACACGTGTCGTA
AAAGGCACGTGACGTT

Relative binding free energy, 0 kcal/mol:
TGAATCACGTGGGCTG
ATGTACACGTGTAGGA
TGTGGCACGTGACAAG
TGTTCCACGTGGCATG

Relative binding free energy, 0.15 kcal/mol:
AAGGGCACGTGAGTTT
GATTACACGTGTGCGG
TGAGACACGTGAAGGT
TAGGACACGTGTTGTC
GGAATCACGTGTGGTA

Relative binding free energy, -0.09 kcal/mol:
GTATACACGTGGGTGT

Relative binding free energy, 0.05 kcal/mol:
ATGTACACGTGGTTAT
AGAGTCACGTGGGGAA
CATGACACGTGTAGGT

Relative binding free energy, -0.01 kcal/mol:
GTATGCACGTGGTCAG
ACGGGCACGTGTTTTA
TTGAACACGTGGGGTT
TGTATCACGTGCGTTA

Relative binding free energy, -0.03 kcal/mol:
GTTGGCACGTGTTGTT
ATGTCCACGTGGGCAT
AGACACACGTGGAGGG
TGGACCACGTGGGACG
CGATGCACGTGTGGTG

Relative binding free energy, -0.36 kcal/mol:
GGGCGCACGTGGGCGA

Relative binding free energy, -0.28 kcal/mol:
CGACGCACGTGGGGGT

Relative binding free energy, -0.02 kcal/mol:
ATGGTCACGTGGAGTA
TGATACACGTGCTTGG
CTGTACACGTGGTAGT
TGTTACACGTGTGCGA
TTATGCACGTGATCTG
TAGGGCACGTGATTGC

Relative binding free energy, -0.23 kcal/mol:
TGCTGCACGTGCTTGG

Relative binding free energy, -0.07 kcal/mol:
ATCGGCACGTGATGGT
AATTGCACGTGGGGTG
CATTGCACGTGTATGT
TGAAGCACGTGGAGTG
TGTCGCACGTGTATTG
CGAGGCACGTGGTTGG
AGGTACACGTGCATGG
TTTAACACGTGGGGGC

Relative binding free energy, 0.42 kcal/mol:
GGTCTCACGTGTAGCA

Relative binding free energy, 0.47 kcal/mol:
GCATTCACGTGAGTTA

Relative binding free energy, 0.18 kcal/mol:
TTCGACACGTGAGGGG
GGGGACACGTGACAGG
TGAGTCACGTGCGCGT
TAAAACACGTGTGGAG

Relative binding free energy, -0.08 kcal/mol:
GTAGACACGTGTCGGT
TTAGCCACGTGGTGAT
AGAGGCACGTGTGCTG

Relative binding free energy, 0.13 kcal/mol:
TAGCGCACGTGATATT
AGGAACACGTGGATGT
AGGATCACGTGTAGTA

Relative binding free energy, 0.24 kcal/mol:
GGGGTCACGTGGTTCA
TCGTTCACGTGGAGGG

Relative binding free energy, 0.32 kcal/mol:
TCGTTCACGTGTTCAG
GAAATCACGTGATGGT
TTTGTCACGTGAAGGT
GTGAGCACGTGAGATG

Relative binding free energy, 0.38 kcal/mol:
TTCATCACGTGAGGAG
GAATACACGTGAGTAT

Relative binding free energy, -0.22 kcal/mol:
TCTCGCACGTGGGGTT

Relative binding free energy, 0.1 kcal/mol:
TTTAACACGTGTAATG
CTAATCACGTGGTTTA

Relative binding free energy, -0.29 kcal/mol:
GGGGGCACGTGCAGCT

Relative binding free energy, -0.12 kcal/mol:
TTTCGCACGTGCTGTG
TTGTGCACGTGGTAGG
ATTAACACGTGGGGCG
TTTGGCACGTGGGAGA

Relative binding free energy, -0.05 kcal/mol:
CAAGACACGTGGGTGG
GCGGGCACGTGCGGTG
TGATGCACGTGGTTTG
CATAACACGTGGTGTT
TAGAGCACGTGTATAG
TTTGGCACGTGTTTTA
CATTACACGTGGGGGC

Relative binding free energy, 0.34 kcal/mol:
GTGTTCACGTGAGAAT
TTAGACACGTGTAAAT

Relative binding free energy, -0.2 kcal/mol:
GAGGGCACGTGTGCGG
ACGTGCACGTGGGTAT
TGAAGCACGTGGTGCG

Relative binding free energy, -0.06 kcal/mol:
CTGTGCACGTGTATTG
TCCGGCACGTGAGGTG
GTGCGCACGTGATAGG
ACGGGCACGTGGGAAG
TTATACACGTGGGAGG

Relative binding free energy, 0.04 kcal/mol:
CGCGTCACGTGTAGGT
CGTGTCACGTGCTTGG
CCTTTCACGTGGGGGT
ATTCTCACGTGGGGAG

Relative binding free energy, 0.4 kcal/mol:
TGGATCACGTGATAAG
GTCGACACGTGAAGGT

Relative binding free energy, 0.33 kcal/mol:
AATTTCACGTGACGTG

Relative binding free energy, 0.23 kcal/mol:
GATAGCACGTGAGGGT
TATGTCACGTGAGTTA
GTAATCACGTGTAGGA
AGGGACACGTGAGCTG

Relative binding free energy, 0.27 kcal/mol:
TTTTTCACGTGGGTGA
GAGTACACGTGTGAGT
CGTCGCACGTGAAAGG
GGCTGCACGTGAGGGA
AGAATCACGTGTTGGA
GGGTTCACGTGTTGGC

Relative binding free energy, 0.01 kcal/mol:
CAGGGCACGTGTGGGT
TAATGCACGTGTTGTA
GGTGCCACGTGGTTTT
TTTTGCACGTGGTTGC

Relative binding free energy, 0.25 kcal/mol:
GACTTCACGTGGGTTA
GTGGTCACGTGATCGT
TTAAACACGTGAGGAA
CTATTCACGTGTTTGG

Relative binding free energy, 0.28 kcal/mol:
GGCGGCACGTGAAATG

Relative binding free energy, -0.37 kcal/mol:
GGGCCCACGTGGGGTA

Relative binding free energy, 0.06 kcal/mol:
ATAATCACGTGGCTTT
TGGGTCACGTGGAACT

Relative binding free energy, 0.17 kcal/mol:
AATGGCACGTGAGGTT
ACATTCACGTGTTGTG
AGGGTCACGTGGATCT
TGTTGCACGTGAAGGT

Relative binding free energy, 0.19 kcal/mol:
GAATACACGTGTTTAG
TGGAGCACGTGAGGGA

Relative binding free energy, -0.14 kcal/mol:
GGGAGCACGTGCTGGA
CATGGCACGTGTAGGG

Relative binding free energy, -0.13 kcal/mol:
CGAGGCACGTGTCAGG
TAATGCACGTGGTACG
TTCGACACGTGGGGAG
TCAGGCACGTGTGTCG
CGATGCACGTGTTGGT

Relative binding free energy, 0.2 kcal/mol:
ATAAGCACGTGACGGG
TTTGACACGTGCGACG
GTTCGCACGTGAGGTA
TCATTCACGTGTTGTT
TTTTCCACGTGTGGAA
TATGTCACGTGATTGA
GCTTTCACGTGGGTCT

Relative binding free energy, 0.11 kcal/mol:
GGCGTCACGTGTGCTG
CGTGGCACGTGAGACG
TTTGACACGTGATAGG
TTTTACACGTGGTTGT
AGCCTCACGTGGGGTA

Relative binding free energy, -0.21 kcal/mol:
CGGGCCACGTGGTGGC
CAAGGCACGTGGGGGG
GTTTGCACGTGGGTCA
CATGGCACGTGGGGGT

Relative binding free energy, 0.3 kcal/mol:
AAGTTCACGTGTCGAT

Relative binding free energy, 0.16 kcal/mol:
ATGTGCACGTGAGGCG
TATTACACGTGCAGTT
AGTTACACGTGGGTCT
GTCATCACGTGTCGGG
ATCTTCACGTGGATGT
TTTTTCACGTGCATAT

Relative binding free energy, -0.18 kcal/mol:
GTTAGCACGTGGCTAT
ATCAGCACGTGTAGTG
CTCTGCACGTGGGGAG

Relative binding free energy, 0.37 kcal/mol:
GTTTTCACGTGGCTGG
TTCCTCACGTGAAGGG

Relative binding free energy, -0.04 kcal/mol:
AGATGCACGTGTTTAG
TTAAGCACGTGATATT
TATGGCACGTGTGCTA
ATCTGCACGTGGGTAA
GGTTGCACGTGCGTCT
AGGTGCACGTGTTGAC

Relative binding free energy, 0.07 kcal/mol:
GCTTGCACGTGGGTCT
TTTGACACGTGTTGCG
AAGGGCACGTGTATCG
TTTAGCACGTGTACTA

Relative binding free energy, 0.22 kcal/mol:
GAGATCACGTGTGCGG
TTTCGCACGTGTAAGT
ATGATCACGTGTGGCT

Relative binding free energy, 0.08 kcal/mol:
GACGGCACGTGTGGTC
GTTGGCACGTGAGCGT
CGGGTCACGTGGTGTT
TCAGTCACGTGGATGT
ATTTTCACGTGTCTGT
ATTAACACGTGATTGG
ACGCTCACGTGGTGGG
CGGAGCACGTGGATTT

Relative binding free energy, 0.29 kcal/mol:
TGCTTCACGTGATATG
GGATTCACGTGTTTAG
AAGTTCACGTGGAGAG
TTGAACACGTGAATAG

Relative binding free energy, 0.39 kcal/mol:
GGATTCACGTGTCAGA

Relative binding free energy, 0.21 kcal/mol:
GTTTGCACGTGAGTAC
ATGTTCACGTGCGTCT
ATGTTCACGTGTCAGG
AGAAGCACGTGAAGGG
TCTTTCACGTGATGTT
GAGGTCACGTGTTTAA
AGGTTCACGTGAATTA
TGGGCCACGTGAGAAG
TATCTCACGTGGTGAT

Relative binding free energy, 0.36 kcal/mol:
AGGGTCACGTGAATAT
TTATTCACGTGATGTG

Relative binding free energy, -0.1 kcal/mol:
GGTGACACGTGTTCTG

Relative binding free energy, -0.11 kcal/mol:
GCTTACACGTGGGGGT
GATTGCACGTGGTCGA
TGTGACACGTGCGTAG
GCTGGCACGTGTTGGT

Relative binding free energy, 0.26 kcal/mol:
AAATTCACGTGTAAGG
TAGTTCACGTGGGTGG
ATGAGCACGTGAGAGA
GGGATCACGTGTTTTA

Relative binding free energy, -0.16 kcal/mol:
TTGAGCACGTGGGCGA
TTGTGCACGTGCGTGT
ATTCACACGTGGTAGG

Relative binding free energy, -0.15 kcal/mol:
TCAGGCACGTGGTCTT
CAAGGCACGTGGATGT
